The campaign covered roughly 45,000 compounds. About 200 (0.44%) were called active. Another 7% or so got no clear call; they are omitted. Calls follow the shape of the dose curve; as a rule, active = well fitted activation curve with a large enough effect; inconclusive = small, poorly fitted or top-dose-only effect; inactive = no such curve, though single readings can be large or run the other way. This is one part of the list.
Assay: qHTS of TDP-43 Inhibitors: NCGC Sytravon Library Screen; also: 0% is about no effect; nearly all actives have a fitted effect of over 55% in size
Details: yeast TDP-43 toxicity rescue, BacTiter-Glo growth, 24 h; series mostly up to 46.1 µM; growth rescue (activation): at the top concentration
Outline: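 TDP-43-expressing yeast, pregrown in raffinose, seeded at OD600 0.02 in galactose medium with compound for 24 hr at 30 deg C. Growth read by BacTiter-Glo luminescence, so rescue of toxicity appears as activation.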

Row | Structure (SMILES) | growth rescue (activation)
1 | O=S(=O)(c1ccc(N2CCOCC2)c(Cl)c1)N1CCOCC1 | inactive: 18.1%
2 | COc1ccc(S(=O)(=O)N2CCCC2)cc1NC(=O)c1ccccc1 | inactive: -6.84%
3 | COc1ccc(-c2ccc(C(=O)NCc3ccccc3)c3occc23)c(C)c1 | inactive: 19.7%
4 | COc1ccc(N=Cc2sc(O)c3ccccc23)cc1 | inactive: 16.9%
5 | CCc1ccc(N2CC(C(=O)N3CCCCCC3)CC2=O)cc1 (stereo not drawn) | inactive: 7.63%
6 | COc1cccc(NC(=S)N(Cc2cccc(Br)c2)CC2CCC(C(=O)O)CC2)c1 (stereo not drawn) | inactive: 10.1%
7 | CS(=O)(=O)c1ccc(C(=O)OCC(=O)NC(=O)C2CCCCC2)cc1[N+](=O)[O-] | inactive: -9%
8 | O=C(Cc1ccc(-n2c(=O)c3sccc3n(CC(=O)Nc3ccccc3)c2=O)cc1)NCc1ccco1 | inactive: -8.35%
9 | COc1ccc(CNC(=O)CCC(=O)N2CCN(C(C)=O)CC2)cc1 | inactive: 8.37%
10 | O=C(NCC1CCCCC1)c1ccc(=O)[nH]c1 | inactive: 11.7%
11 | Cc1c(C)n(CC(O)CN(CCO)CCO)c2ccccc12 (stereo not drawn) | inactive: 5.44%
12 | CC(=O)Nc1cc[n+](CC(=O)c2ccc(Cl)cc2)cc1 | inactive: 7.45%
13 | CC(NC(=O)COC(=O)CCC(=O)c1ccc(Cl)cc1)c1ccccc1 (stereo not drawn) | inactive: 2.1%
14 | COc1ccccc1N1CCN(C(=O)C2CC(=O)N(c3ccccc3)C2)CC1 (stereo not drawn) | inactive: 13.3%
15 | Cn1c(SCC(=O)NC2CCCCC2)nnc1-c1cccnc1 | inactive: -10.5%
16 | COc1ccc(CNC(=O)CN(C(=O)c2csnn2)c2cccc(C(C)=O)c2)cc1 | inactive: -8.43%
17 | C=CCNC(=O)/C(C#N)=C/c1cc(Br)ccc1OC | inactive: 42.3%
18 | O=c1[nH]c(SCc2ccc(F)cc2Cl)nc2ccccc12 | inactive: 13.4%
19 | COc1ccc(C(N)=O)cc1NC(=O)c1cccc(F)c1 | inactive: 0.519%
20 | Cc1onc(-c2ccccc2)c1C(=O)Nc1cccc(S(=O)(=O)N2CCCCC2)c1 | inactive: -1.25%
21 | CN(c1ccc(OCC(=O)OCC(=O)Nc2c(F)c(F)c(F)c(F)c2F)cc1)S(=O)(=O)c1ccc(F)cc1 | inactive: 18.3%
22 | CCC(=O)N1CCc2cc(-c3csc(NC(=O)c4ccco4)n3)ccc21 | inactive: 11.3%

Row | Structure (SMILES) | growth rescue (activation)
23 | Cn1c(SCC(=O)N/N=C/C=C\c2ccccc2[N+](=O)[O-])nc2ccccc21 | inactive: -8.94%
24 | Cc1ccc(C)c(CNC(=O)Nc2ccccc2)c1 | inactive: 22.8%
25 | Cc1ccc(OCC(=O)O/N=C(\N)c2ccncc2)cc1C | inactive: 24.8%
26 | O=C(N/N=C/c1cccnc1)c1cccc(S(=O)(=O)N2CCCC2)c1 | inactive: 2.03%
27 | O=C(NC(O)C(=O)c1ccccc1)c1ccccn1 (stereo not drawn) | inactive: 19.8%
28 | C[C@]12CC[C@H](O)CC1=CCC1C2CC[C@@]2(C)C1CC[C@@H]2NC(=O)CCC(=O)O (stereo partly drawn) | inactive: 11.8%
29 | O=C(NN1C(=O)C2C(c3ccccc3)C=CC(c3ccccc3)C2C1=O)c1cccc(Br)c1 (stereo not drawn) | inactive: 13.7%
30 | O=S(=O)(c1cccs1)N1CN(C2CCCC2)c2nc3ccccc3nc21 | inactive: -6.25%
31 | COc1cccc(-c2cc(C(=O)NCCCn3ccnc3)c3ccccc3n2)c1 | inactive: -5.05%
32 | Nc1nc(-c2ccco2)cs1 | inactive: -6.26%
33 | COCCNC(=O)c1cc2cc(Br)cc(Br)c2oc1=O | inactive: 7.17%
34 | COc1ccc(NC(=O)CC2Oc3ccccc3NC2=O)c(OC)c1 (stereo not drawn) | inactive: 7.63%
35 | COc1cc(NC(=O)COc2ccccc2Cl)ccc1NC(=O)c1cccs1 | inactive: -6.01%
36 | CCn1c(O)c(C=NCCN2CCOCC2)sc1=S | inactive: -18.8%
37 | O=C(/C=C/c1ccco1)N/C(=C\c1ccco1)C(=O)NCCc1nc2ccccc2[nH]1 | inactive: 6.88%
38 | CCCSc1ncc(Cl)c(C(=O)Nc2c(C(=O)c3ccc(C)cc3)oc3ccccc23)n1 | inactive: 15.8%
39 | COc1ccc(N(CC(=O)NCCC2=CCCCC2)S(=O)(=O)c2ccccc2F)cc1 | inactive: 27.4%
40 | Cc1cc(=O)n2c3ccccc3n(CC(O)CN3CCN(CCO)CC3)c2c1C#N (stereo not drawn) | inactive: 10.2%
41 | Cc1nn2c(-c3cccc(NC(=O)c4ccc(Cl)cc4)c3)nnc2c2ccccc12 | inactive: -1.68%
42 | O=C(/C=C/c1cccc(F)c1)OCC(=O)N1CCCC1 | inactive: -53.5%
43 | NS(=O)(=O)c1ccc(CCNC(=O)CN2CCN(Cc3cccc4ccccc34)CC2)cc1 | inactive: 5.04%
44 | Cc1ccc(NC(=S)N(CCCN2CCCC2)Cc2cccn2Cc2ccc(Cl)cc2)cc1Cl | inactive: -52.3%

Row | Structure (SMILES) | growth rescue (activation)
45 | CC(C)NC(=O)CN(Cc1ccc(F)cc1)C(=O)CCC(=O)Nc1nccs1 | inactive: -11.5%
46 | O=P(O)(Cc1ccccc1)Cc1ccccc1 | inactive: -0.288%
47 | CCCCOCc1cc(CN2CCN(c3cccc(Cl)c3)CC2)c(O)c2ncccc12 | inactive: -68.2%
48 | Cc1ccc(CNC(=O)c2ccccc2NC(=O)CN2CCN(C)CC2)cc1 | inactive: 0.77%
49 | CCOc1cc(N2CCOCC2)c(OCC)cc1NC(=O)CSc1ncccc1C(=O)O | inactive: 8.33%
50 | CC(NC(=O)c1c(O)c2ccccc2n(C)c1=O)c1ccccc1 (stereo not drawn) | inactive: -24%
51 | O=C(Cc1cccc(C(F)(F)F)c1)N1CCCC1 | inactive: -18.8%
52 | CN(C)c1ccc([C@@H]2[C@@H]([N+](=O)[O-])[C@H]3C=Cc4ccccc4N3[C@H]2C(=O)c2ccc(Cl)cc2)cc1 | inactive: 0.309%
53 | NS(=O)(=O)c1ccc(CNC(=O)/C=C/c2cccc([N+](=O)[O-])c2)cc1 | inactive: 8.57%
54 | Cc1cc(OC(C(=O)O)c2ccccc2)c2c(C)c(Cc3ccccc3)c(=O)oc2c1 (stereo not drawn) | inactive: -2.9%
55 | COCCNC(=O)C1CCCN(Cc2ccc(Cl)cc2)CC1 (stereo not drawn) | inactive: 6.19%
56 | COc1ccc(C(=O)Nc2ccc(N3CCN(C)CC3)cc2)cc1OC | inactive: 3.93%
57 | COc1ccccc1N(C(=O)c1csnn1)C(C(=O)NC1CCCC1)c1ccccc1 (stereo not drawn) | inactive: 9.08%
58 | Clc1cccc(N2CCN(c3ncnc4nc[nH]c34)CC2)c1 | inactive: 1.39%
59 | COc1ccc(S(=O)(=O)N2CCN(C(=O)c3cc4c(s3)CCC4)CC2)cc1 | inactive: 17.3%
60 | CCOC(=O)Cc1csc(NC(=O)CSc2nc(C)cc(C)n2)n1 | inactive: -0.3%
61 | CCC(=C/c1sc2ccc3ccccc3c2[n+]1C)/C=C1\Sc2ccc3ccccc3c2N1C | inactive: -95.9%
62 | COc1ccc(CCNC(=O)C2CCN(Cc3nc(-c4ccc(Cl)cc4)oc3C)CC2)cc1OC | inactive: -18.8%
63 | O=c1cc(CN2CCN(Cc3ccccc3)CC2)c2ccc(O)cc2o1 | inactive: 13.9%
64 | CCNC(=O)C1(C)CCCN(C(=O)c2ccnc(Cl)c2)C1 (stereo not drawn) | inactive: 2.38%
65 | O=C(Cc1ccc(Cl)cc1Cl)NC1CCCCCC1 | inactive: -33.1%
66 | O=Cc1cn(CCC(=O)O)nc1-c1cccc(Br)c1 | inactive: -6.57%

Row | Structure (SMILES) | growth rescue (activation)
67 | COc1ccc(CNC(=O)Cn2c(=O)oc3cc(S(=O)(=O)N4CCCC4)ccc32)cc1 | inactive: 1.54%
68 | CC(=O)c1cnc2cc(-c3cccc(Br)c3)nn2c1C | inactive: 15.1%
69 | Cc1nnc(SCC(=O)N2CCN(S(=O)(=O)c3ccc(Cl)cc3)CC2)[nH]c1=O | inactive: 10.5%
70 | Cn1c(N)c(C(=O)COC(=O)Cc2ccc(Cl)cc2Cl)c(=O)n(C)c1=O | inactive: 24.8%
71 | O=C(NCCCN1CCOCC1)c1ccc(N2CCCC2)c([N+](=O)[O-])c1 | inactive: 5.2%
72 | COc1cccc(Nc2nc(-c3ccccc3)c3cc(C)ccc3n2)c1 | inactive: 25.6%
73 | CCOC(=O)C1=C(NC(=S)NC(=O)c2ccccc2)c2ccccc2CC1(C)C | inactive: -14.4%
74 | NNC(=O)CN(CCc1ccccc1)S(=O)(=O)c1ccc(Cl)cc1 | inactive: 3.45%
75 | CCCc1cc(C(=O)Nc2ccc(CC)cc2)no1 | inactive: 17%
76 | N/C(=N\OC(=O)c1cccs1)c1cccnc1 | inactive: 22.2%
77 | CCOc1cc(CNCc2ccccc2)ccc1OCc1ccc(Cl)cc1 | inactive: 9.75%
78 | CC(OC(=O)CNC(=O)c1ccco1)C(=O)N(C)c1ccccc1 (stereo not drawn) | inactive: 1.13%
79 | Cc1ccc(OCCN2CCC2(C)C(=O)NCc2cccc3ccccc23)cc1 (stereo not drawn) | inactive: 8.21%
80 | COc1cc(OC)cc(C(=O)N[C@H](C(=O)OCC(=O)Nc2ccc3c(c2)OCO3)C(C)C)c1 | inactive: -12.4%
81 | O=C(O)c1ccc(/C=N/Nc2ncc(C(F)(F)F)cc2Cl)cc1 | inactive: 16.7%
82 | CCSC(=Nc1ccccc1)Nc1ccccc1 | inactive: -2.81%
83 | CSc1ccc(C(=O)C2CCCN(C(=O)CCn3cncn3)C2)cc1 (stereo not drawn) | inactive: -3.32%
84 | CCN(CC)S(=O)(=O)c1ccc(/C=C/C(=O)NC2CCCCC2)cc1 | inactive: 17.4%
85 | Cn1c(=O)c2c(nc(N/N=C/c3cccs3)n2C)n(C)c1=O | inactive: -5.81%
86 | COc1ccc(NS(=O)(=O)c2cc(NC(=O)c3cncc(Br)c3)ccc2OC)cc1 | inactive: 34.2%
87 | CCOC(=O)CNC(=O)c1ccc(Cl)s1 | inactive: 14.6%
88 | O=C(CNC1CCCCC1)NCC1(c2ccccc2)CCCC1 | inactive: 5.32%

Row | Structure (SMILES) | growth rescue (activation)
89 | COc1ccc(C)cc1NS(=O)(=O)c1cccc2nonc12 | inactive: 29.3%
90 | COc1ccc(-c2ccc(=O)n(CC(=O)NCc3ccco3)n2)cc1 | inactive: -4.17%
91 | CCOc1ccc(CN2CCN(Cc3ccon3)CC2CCO)cc1 (stereo not drawn) | inactive: 5.2%
92 | O=C(C1CCC(CNS(=O)(=O)c2cccs2)CC1)N1CCN(c2ccc(F)cc2)CC1 (stereo not drawn) | inactive: -6.05%
93 | CCOC(=O)c1c(NC(=S)NC(C)=O)sc(C)c1C | inactive: 1.46%
94 | Cc1ccc(S(=O)(=O)N2CCCCC2)cc1C(=O)NCc1ccccn1 | inactive: 14%
95 | COc1ccc(CCC(=O)Nc2sccc2C#N)cc1 | inactive: 4.07%
96 | Cc1ccc2nc(Cl)c(/C=N/NC(=O)c3ccccc3O)cc2c1 | inactive: 2.45%
97 | O=C(Nc1c2c(nn1-c1ccc(F)cc1)CS(=O)C2)C12CC3CC(CC(C3)C1)C2 (stereo not drawn) | inactive: -2.07%
98 | O=C(Nc1nnc(-c2ccc(F)cc2)s1)c1ccco1 | inactive: 9.28%
99 | O=C(NC1CCCCC1)C1CCN(C(=O)c2ccc(Cl)cc2)CC1 | inactive: 2.61%
100 | CC(=O)Nc1cccc(NC(C)=C(C#N)C#N)c1 | inactive: 16.5%
101 | O=C1CCc2cc(S(=O)(=O)NC(Cc3ccccc3)C(=O)N3CCN(c4ccccn4)CC3)ccc2N1 (stereo not drawn) | inactive: -28.6%
102 | CCN(CC)C(=O)NC(c1ccc(C)c(F)c1)C(Cl)(Cl)Cl (stereo not drawn) | inactive: 20.7%
103 | CC1C(=O)C(C)C(c2cc(Br)ccc2O)NC1c1cc(Br)ccc1O (stereo not drawn) | inactive: -21%
104 | O=C(COC(=O)c1cnccn1)c1ccc(C2CCCCC2)cc1 | inactive: 3.22%
105 | OC(c1ccc(F)cc1)c1nc(-c2cccc(C(F)(F)F)c2)cs1 (stereo not drawn) | inactive: -50.5%
106 | COc1ccc(NC(=S)N2CCC(NC(=O)c3cccc(F)c3)CC2)cc1 | inactive: -13.9%
107 | Cc1ccc(OCC(=O)NCCCNC(=O)c2ccco2)cc1C | inactive: 9.61%
108 | Cn1nnc(NC(=O)c2ccccc2F)n1 | inactive: -10.5%
